# The full ranking holds about 33,000 sequences; the median of “E-score (-0.5 to 0.5)” is about -0.032, and the highest 2% start at about 0.36. The list shows a part of the results.
# Target: T1, Sko1 (UniProt Q02100)
# T1 sequence: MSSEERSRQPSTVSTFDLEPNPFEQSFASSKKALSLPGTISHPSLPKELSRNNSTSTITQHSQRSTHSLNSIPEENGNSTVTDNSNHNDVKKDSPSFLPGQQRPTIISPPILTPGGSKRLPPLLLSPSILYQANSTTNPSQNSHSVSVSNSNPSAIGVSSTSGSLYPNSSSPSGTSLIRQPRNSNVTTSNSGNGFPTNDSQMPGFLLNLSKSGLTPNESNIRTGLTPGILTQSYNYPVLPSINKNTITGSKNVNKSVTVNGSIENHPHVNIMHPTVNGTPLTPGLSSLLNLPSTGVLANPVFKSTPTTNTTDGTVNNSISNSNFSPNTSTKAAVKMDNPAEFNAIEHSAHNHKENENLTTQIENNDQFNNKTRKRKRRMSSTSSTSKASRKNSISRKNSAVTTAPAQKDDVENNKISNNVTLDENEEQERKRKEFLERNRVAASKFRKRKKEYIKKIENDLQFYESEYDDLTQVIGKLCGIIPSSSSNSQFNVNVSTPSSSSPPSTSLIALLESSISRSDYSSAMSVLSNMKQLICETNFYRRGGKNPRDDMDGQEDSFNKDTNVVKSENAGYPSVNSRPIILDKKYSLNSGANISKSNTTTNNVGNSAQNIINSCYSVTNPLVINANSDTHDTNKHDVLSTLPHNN
# Assay: PBM E-score (8-mer binding enrichment) (E-score (-0.5 to 0.5)); higher = stronger / more preferred TF binding; most listed sequences are background and not binding sites
# Conditions: protein concentration: 200 nM; construct: GST-full length
# Outline: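 Full-length yeast transcription factors or their DNA-binding domains, GST-tagged and expressed with PURExpress, were applied at about 100-200 nM to universal all-10-mer Agilent arrays. These arrays had been made double-stranded by primer extension on fresh or once-stripped slides. Detection used fluorescent anti-GST, normalisation used masliner, and E-scores for ungapped eight-base words pooled with reverse complements came from the Universal PBM Analysis Suite.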
row,Sequence,PBM E-score
1,GAAATAAC,0.144
2,CACGAGTG,-0.0109
3,ACAGAAAG,0.115
4,AGAGTGTC,0.0578
5,CTCAAAGA,-0.0769
6,ATATGCAT,0.0831
7,AGCACATG,0.00826
8,CAGGTCCC,-0.322
9,GTATAGTA,0.0728
10,ATGAAGTA,0.14
11,AGTTCAGC,-0.146
12,CCTCACAA,-0.00715
13,AATCTCGT,0.143
14,TAAAAATA,0.266
15,GAATATAC,0.0665
16,CGATTGGA,-0.0798
17,GTCGTCAA,0.239
18,AACAACAG,0.0377
19,CAAGGACA,-0.0777
20,AATCGACG,0.295
21,ACTATAAA,0.144
22,GGGCACTA,-0.133
23,ATATCTTG,0.1
24,CTGGTAGC,-0.114
25,CATAGTCG,0.167

row,Sequence,PBM E-score
1,ACCGGACG,0.0453
2,CGTATTGA,0.348
3,AAGAATGC,0.04
4,ACCCTCCG,-0.305
5,AGCGCTTG,-0.226
6,GTGGTAAC,0.121
7,ATATGGAA,0.0514
8,CGTCAAAA,0.36
9,GCTGTGAC,0.207
10,ACGACTAC,0.0547
11,ATCCTCCA,-0.0908
12,CTATAGGA,0.0338
13,TCTGTTCA,-0.0585
14,CAACAGTG,-0.0996
15,ACACCCCA,-0.00989
16,CTACTACA,-0.0394
17,CGATTGAG,-0.111
18,ACTATGAG,0.0435
19,GAATTATA,0.163
20,AATGTCGA,0.217
21,GGAAGAAC,0.079
22,AGGAGTCA,-0.0845
23,CGACGACA,0.0871
24,CGTTCGAG,0.189
25,ACCACGGC,-0.135

row,Sequence,PBM E-score
1,CAATTGTC,-0.0409
2,ACACTACG,0.368
3,GACTTATA,0.197
4,GCATTGTA,0.0473
5,ATCTCGGA,0.0211
6,AGTGTCGA,-0.14
7,GGCGACGA,-0.241
8,TTCATAAA,0.0982
9,ACAGGAAC,-0.0349
10,CGGGCTTC,-0.275
11,AAATGCGA,0.0299
12,ACGTGGCA,0.297
13,CCGCCTCG,-0.173
14,AGGTTGTA,0.15
15,ACCCACGG,-0.218
16,ACGATATA,0.237
17,CACAGAAG,-0.148
18,CCTCCAAC,-0.0545
19,TCATCCGA,0.184
20,TAGCAGCA,-0.024
21,CCGACGCG,-0.0999
22,TAATGGGA,-0.0156
23,ATATAAGC,0.0605
24,ACATGCTC,-0.037
25,CCGTGCCA,-0.129

row,Sequence,PBM E-score
1,GGCAAAAC,-0.0766
2,CACGAAAC,0.184
3,GCAATACC,0.0431
4,AGGACAAC,0.154
5,GCGACCTA,-0.117
6,GCTGGTGA,0.012
7,CCTAAGCG,-0.139
8,GAAATTTA,0.208
9,ATAAAAGG,-0.0649
10,GGAAAGAC,-0.0809
11,TCTATTAA,0.117
12,AGTCCAAG,-0.208
13,AGTCGGGC,-0.167
14,ACTGCTCC,-0.203
15,GGAGCTGA,-0.101
16,AGGTTCAG,-0.115
17,CTTCCTCC,-0.237
18,CTTAAAAA,0.182
19,AACGCGTG,0.232
20,CTAAGCTA,0.0685
21,AAGTCACC,-0.00714
22,AGAATTAT,0.247
23,ACGTCGGA,0.273
24,ACAGCTGA,0.0321
25,CTGTGCCA,-0.191

row,Sequence,PBM E-score
1,CGCTCCCG,-0.139
2,CGCGCCGC,-0.106
3,CATGGACG,0.228
4,ACCAACCC,-0.102
5,CTGAACAA,0.0862
6,CTTAGATC,-0.00163
7,CGAAATCG,0.0483
8,AAGGGTAA,-0.146
9,AAATCAGG,0.0636
10,CCAGAGGA,-0.21
11,CCGAACGC,-0.0725
12,ACACGAGG,-0.138
13,GATGGTCA,-0.0743
14,TGCAAGAA,0.105
15,CCTCCGAG,-0.337
16,GAATGGAA,0.12
17,GGATCGGA,-0.23
18,CGTGTAGA,0.162
19,CACGTCAC,0.482
20,GGGATCCA,-0.0947
21,CGTACGGC,0.251
22,ATATAACG,0.342
23,CAATATAA,0.215
24,TGCGAGCA,-0.0905
25,CCCGAGAA,-0.206

row,Sequence,PBM E-score
1,ATACCCAG,-0.249
2,ATTGAACA,0.14
3,AGGTGACG,0.388
4,AAGAGTCG,0.0344
5,ACGGCTAG,-0.115
6,GGTGACTA,0.0101
7,CCTGATGC,-0.0632
8,AACCCATT,-0.0377
9,ACTGTATG,0.0782
10,CGGCCAGA,-0.00809
11,GGGTCCCA,-0.197
12,CCGGCACG,-0.0598
13,CGGCTAAG,-0.14
14,CTCGAGGC,-0.217
15,AAAGCTAG,-0.105
16,CCCCGCAG,-0.302
17,ACGAAAAA,0.26
18,CCTCTATA,-0.164
19,CGCGCGTC,0.189
20,CGCAGCGA,0.0221
21,ATATGAGG,-0.0112
22,ATTGTCGC,0.114
23,GAAACGGA,0.15
24,CGAAGCCC,-0.167
25,GGCCACAA,-0.172

row,Sequence,PBM E-score
1,AAGCAGTG,0.035
2,CGCAGGCC,-0.175
3,GTGCACGA,0.0663
4,CCTTCTCG,-0.203
5,GGAGTGAC,0.0852
6,CAGAGAGG,-0.453
7,ATGATATG,0.264
8,ACTTTGAA,0.0988
9,GTCGAACA,-0.00814
10,CAGTAGTC,-0.0789
11,CACCGCTC,-0.197
12,ATAAGGGC,0.0973
13,ATCACCAC,0.117
14,ACTTAGCG,0.0634
15,AGGCAAAC,-0.029
16,CTGATATC,-0.054
17,AATCTAAA,0.0802
18,AGATGAGA,-0.051
19,ACCCTGAT,-0.0969
20,ACAGAACT,0.105
21,AACGATGG,-0.0107
22,AAGTCTAG,-0.123

# From the supplement of paper PMC3334620
